Data as given in the RNAGym collection of RNA variant scans (doi:10.7554/elife.90254).
Read counts are not given, so values of variants with three or more changes are uncertain.

B1: LINE1-full (parent)
chain: UACGUAGGUGGUUUUCCCCUGAUAGUGCUAAGGGGGCCUGGAAGUUUGGACUGGGCAGAGCUCAACACAGCGUGGCAAAGUGGCUGUGGCUAGACUGCCUCUCUGGAUUCCUCGUCACUCAGCAGGGCAUCUCUGAGAGAAAUGCC

Variants of: B1
Assay: self-cleavage, relative activity (ratio to wild type); higher = more cleavage; in vitro, sequencing; the parent is a self-cleaving ribozyme
With U13C C68U A124C A142G the self-cleavage was 0.27.
For C71U U96G C99A U115C, the self-cleavage was 0.03.
For U23G A30G A140G, the self-cleavage was 1.67.
In the case of U62C U87C U109A, the self-cleavage is reported as 0.
Work on A6U G32A U39C yielded a self-cleavage of 1.06.
A64U A67U U81A gave a self-cleavage of 0.04.
A22G A107U A124G gave a self-cleavage of 1.11.
In the case of U13C U26C A142G, the self-cleavage is reported as 1.41.
C68U U73C A77G A78U U115A A117C A140G showed a self-cleavage of 0.23.
G58A A78G U119C gave a self-cleavage of 0.
With U62A A69G U130C the self-cleavage was 0.
A92C U96C G127U A142G gave a self-cleavage of 0.
U20G G44A U46A C71A showed a self-cleavage of 0.04.
Variant C17U U109C U132C has a self-cleavage of 0.6.
Work on G34U U134C U143G yielded a self-cleavage of 1.61.
U85C U96A U100C A129G showed a self-cleavage of 0.
Work on U5A U39A U47C A57U U91A yielded a self-cleavage of 0.2.
U13A A78G U132A gave a self-cleavage of 1.57.
In the case of U9C U46C A59U, the self-cleavage is reported as 1.31.
U13G U81C A124G showed a self-cleavage of 0.4.
With G35A U52C U62A A142G the self-cleavage was 0.05.
With U73A U81A A92G U115C the self-cleavage was 0.28.
A2G A30G A65U C113U gave a self-cleavage of 0.12.
Variant U52C A67G U132G has a self-cleavage of 1.15.
Work on A22U A57G U85C yielded a self-cleavage of 0.
U1C A42U A64U showed a self-cleavage of 0.19.
For A2G A50G A141G, the self-cleavage was 0.56.
Variant A22G U109C U119C A140G has a self-cleavage of 0.92.
U12C G25A U104C A140G gave a self-cleavage of 1.13.
In the case of U45A A67C U73C, the self-cleavage is reported as 0.09.
A77G A121G A141C showed a self-cleavage of 1.08.
For G86A C123U A136G A140U, the self-cleavage was 0.09.
In the case of U87A U119A G144A, the self-cleavage is reported as 0.18.
Work on U9C C38A A77U A79G yielded a self-cleavage of 1.65.
For U1A U12C A30G U52C G58U U100C A124G A129G, the self-cleavage was 0.
C37G C90U U100C showed a self-cleavage of 0.16.
Work on A22G U62C U100A yielded a self-cleavage of 0.06.
In the case of U62A A79G U96A U132A, the self-cleavage is reported as 0.04.
With A65G U96A C110A the self-cleavage was 0.01.
A42G U109A U143A showed a self-cleavage of 1.33.
Work on U12C A64U U91C A107G yielded a self-cleavage of 0.29.
Work on U9G C101U A124U A142G yielded a self-cleavage of 0.94.
Work on U12C A43U U73C U130A yielded a self-cleavage of 0.93.
With U9C A67G U73C U87A A138G the self-cleavage was 0.77.
Work on U15C U39A A50G yielded a self-cleavage of 1.12.
U23C G72A U73C gave a self-cleavage of 1.67.
Variant U23C U39C A64G U85G has a self-cleavage of 0.34.
In the case of G83A A121G C128U, the self-cleavage is reported as 0.51.
In the case of U81C U115A G125U, the self-cleavage is reported as 0.77.
For U45C U81A A141G, the self-cleavage was 1.6.
With U9C A59U C118U the self-cleavage was 0.93.
With C99U U108C A117G A138U the self-cleavage was 1.21.
A6G G75A A94G gave a self-cleavage of 0.69.
With A22G U39C A69U the self-cleavage was 0.22.
Variant U20C A136C A138G A140U has a self-cleavage of 0.46.
A24U A121G A141G showed a self-cleavage of 1.79.
Variant G114A U115A A129G A136G has a self-cleavage of 2.53.
With A24G U115C A141G the self-cleavage was 1.77.
For G32A C51A A94G A142G, the self-cleavage was 0.11.
For U26A A59U A78U U85C, the self-cleavage was 0.23.
With U1C U62A U73A A142G the self-cleavage was 0.05.
For U15C U46C A136G A138U, the self-cleavage was 1.61.
For C66U A69G A107U, the self-cleavage was 0.
U87A U91C U100C showed a self-cleavage of 0.79.
With U13A A67G U73A A121G A136U the self-cleavage was 0.56.
Work on U5A U15C U62C U81A U96A A107G yielded a self-cleavage of 0.15.
U13C A30G A50U G126A showed a self-cleavage of 1.75.
Work on U15A A64G A92G A124U yielded a self-cleavage of 0.
U12G U20A A42G A121G showed a self-cleavage of 0.
In the case of U13C C98A U115C, the self-cleavage is reported as 0.36.
In the case of A57U U62C U102A, the self-cleavage is reported as 0.09.
With G8A U115C A121C A138U the self-cleavage was 1.02.
For U39A A79G U100C C120U, the self-cleavage was 1.36.
U9A G34A A107G A121G showed a self-cleavage of 0.54.
U14C A138G A142C showed a self-cleavage of 1.37.
For G32A U109A U132C, the self-cleavage was 1.1.
For G4A U20C U87C, the self-cleavage was 0.44.
For A24G A43G A78G U130C, the self-cleavage was 1.84.
Work on U15A A24U A94G yielded a self-cleavage of 0.37.
U13C U46A A59G A117G A124U showed a self-cleavage of 0.1.
Work on A6U U73A A129U yielded a self-cleavage of 1.43.
With U5A U12A C28U U39C A142G the self-cleavage was 1.12.
In the case of G40A U62C A117U, the self-cleavage is reported as 0.04.
In the case of U5C U20C A22U A129G, the self-cleavage is reported as 0.
In the case of U20C A42G U81C U109A A141G, the self-cleavage is reported as 1.31.
In the case of C38U U52A U81A A121G A124G, the self-cleavage is reported as 1.81.
With U14C G36A U39A the self-cleavage was 1.03.
For U39A A57G U91C, the self-cleavage was 0.11.
For U20C A79G U112C, the self-cleavage was 0.63.
U12C A57G A64U A78G showed a self-cleavage of 0.21.
Variant U23C U102C A141G A142G has a self-cleavage of 2.3.
With A2G C28G U62A the self-cleavage was 0.15.
Variant U13C A50G C95U has a self-cleavage of 0.
A78G U81A A142G gave a self-cleavage of 0.44.
U14C A43G U104C A129U showed a self-cleavage of 1.75.
Variant U39C U108C A124U has a self-cleavage of 1.98.
For A31G A94U A124U, the self-cleavage was 0.16.
Variant U9C A59G U85G A92G has a self-cleavage of 0.42.
Variant U14C C76U A107G has a self-cleavage of 1.93.
With U46C U108C U115A A140U the self-cleavage was 2.21.
U12C U45C A57U A59G U62C gave a self-cleavage of 0.
For U100A A124G U130A, the self-cleavage was 0.92.
U47G A64G A78G gave a self-cleavage of 0.11.
With G58A U81C A124G the self-cleavage was 0.
For G33U G75A U87C, the self-cleavage was 0.05.
G48U A69G C120A showed a self-cleavage of 0.69.
In the case of G48A G89C U130C A138U, the self-cleavage is reported as 0.01.
Variant U1C U23C U47G U100A A142G has a self-cleavage of 0.53.
Work on A65U A94G U143C yielded a self-cleavage of 0.03.
With U1A U14C A64G A78G A79G A124U the self-cleavage was 1.84.
C71U U87C A94U A138G gave a self-cleavage of 0.06.
In the case of A24G U45C A124G, the self-cleavage is reported as 1.84.
For U46C U81A U100C, the self-cleavage was 2.85.
In the case of U47C U96A A107C, the self-cleavage is reported as 0.21.
For A77G U85C A138G, the self-cleavage was 0.09.
Variant U15A U47A U96C U112C has a self-cleavage of 0.21.
U23C A43G C68U C84U U100C A121G showed a self-cleavage of 0.02.
G54A U73A U87C G125A U132C gave a self-cleavage of 0.
With G82A A92G A140G the self-cleavage was 0.08.
In the case of A42G A65G A79G U112C, the self-cleavage is reported as 0.
With A78G A79G A124G the self-cleavage was 0.
For U13A U45C U91A U104A A136U, the self-cleavage was 0.72.
A64U U132C G139U showed a self-cleavage of 0.28.
U15A U29A G88A gave a self-cleavage of 0.
G55A C99G U132C showed a self-cleavage of 0.04.
Variant A22G U91C U104G A141G has a self-cleavage of 0.
For U20A U47C A136G A138G, the self-cleavage was 2.63.
Work on U9A C19U A50G A79G yielded a self-cleavage of 0.75.
Work on A31U A129G G135U yielded a self-cleavage of 0.78.
With A24U A42U U52C the self-cleavage was 0.51.
In the case of U47C C111U A141G A142G, the self-cleavage is reported as 1.16.
For G82A A124G U134C G135U, the self-cleavage was 2.35.
A6U U13C U47C showed a self-cleavage of 1.21.
In the case of U13A U46C U112C A141G, the self-cleavage is reported as 1.87.
For A107U U134C A140U, the self-cleavage was 2.61.
U14C U46C A79G C103A A124U gave a self-cleavage of 1.
In the case of U39A A67U U81A U100C A107G, the self-cleavage is reported as 0.22.
C61U U115A A124U A136G showed a self-cleavage of 0.05.
A31U A65G A78G A138G showed a self-cleavage of 0.54.
Work on U15C U20C A65G A129U U130A yielded a self-cleavage of 0.56.
Work on U12C A22U G48A U85C yielded a self-cleavage of 0.28.
In the case of G8A A30G G54A U96A U108C U134C, the self-cleavage is reported as 0.12.
In the case of A57U U73C U91C A92U U102A A129G U134A, the self-cleavage is reported as 0.
Work on U46C U85A U115A C133U A142G yielded a self-cleavage of 0.22.
A42G U81A U100C gave a self-cleavage of 2.87.
With U26C U62C U73C U119A G122A the self-cleavage was 0.
Variant A24G U81A U109A has a self-cleavage of 1.67.
Variant U62A U87A U115C A117U has a self-cleavage of 0.01.
A2G U9C U91C gave a self-cleavage of 0.
Work on G35A A59G A92G U143C yielded a self-cleavage of 0.
In the case of C56U A136G A142G, the self-cleavage is reported as 0.34.
For U1C U39A A69G, the self-cleavage was 0.4.
Work on U14C U130C A140G yielded a self-cleavage of 1.21.
Variant C18U U20A U47C C99U A136G has a self-cleavage of 0.94.
With C61U U104C U112C C145U the self-cleavage was 0.01.
U26A U85A C101A U119C showed a self-cleavage of 0.1.
U15C U52C A69G U104A A129U U130C showed a self-cleavage of 0.
U15C U73C A77U showed a self-cleavage of 0.47.
Variant U9A U115C A141G has a self-cleavage of 1.47.
Work on U12G U14C A22G G40C A77U yielded a self-cleavage of 1.24.
For U5C U12C U96C A136G, the self-cleavage was 0.29.
In the case of U29A G83C U102C, the self-cleavage is reported as 0.44.
With U26C C101A U108A the self-cleavage was 1.28.
Work on A2C U20A G44A U73A yielded a self-cleavage of 1.01.
For U14A U46C C68A U81C, the self-cleavage was 0.13.
For U23C U81C U102A, the self-cleavage was 2.76.
For U45G U52G U100C, the self-cleavage was 1.93.
